# Experimental data as given in the BET-seq Pho4 binding data (Le et al. 2018).
# The list shows a part of the results. These are noisy estimates, calculated here from bound and input reads.
# Biological target: T1, Pho4 (S. cerevisiae) (UniProt P07270)
# T1 sequence: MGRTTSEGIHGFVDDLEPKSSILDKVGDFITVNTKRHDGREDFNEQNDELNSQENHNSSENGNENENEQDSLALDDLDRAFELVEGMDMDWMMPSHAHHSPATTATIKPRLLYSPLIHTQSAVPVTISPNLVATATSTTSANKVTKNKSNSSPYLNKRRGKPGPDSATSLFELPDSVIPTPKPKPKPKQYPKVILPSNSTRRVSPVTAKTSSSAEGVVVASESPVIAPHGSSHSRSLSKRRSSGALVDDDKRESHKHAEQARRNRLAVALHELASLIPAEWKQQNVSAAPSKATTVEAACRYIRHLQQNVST
# Assay: relative binding free energy (BET-seq); higher = weaker binding
# Settings: reference: library average
row,Sequence,relative binding free energy
1,AATAGCACGTGTTCTG,-0.13 kcal/mol
2,TTCATCACGTGATGGG,0.19 kcal/mol
3,TGGGCCACGTGCTTGT,-0.22 kcal/mol
4,ATAGACACGTGTTTGG,0.03 kcal/mol
5,CATATCACGTGGTTTT,0.12 kcal/mol
6,CGGGTCACGTGTTTCT,0.24 kcal/mol
7,ATTAACACGTGGGCTG,-0.02 kcal/mol
8,GGGTGCACGTGCATAT,-0.01 kcal/mol
9,TGACACACGTGGTGTG,0 kcal/mol
10,TAATACACGTGTGATG,0.14 kcal/mol
11,TTCTTCACGTGAGTGA,0.46 kcal/mol
12,CGATACACGTGTAGTG,0.26 kcal/mol
13,TTCTACACGTGGGGGG,0 kcal/mol
14,CTATGCACGTGTAGGA,-0.03 kcal/mol
15,TAGGGCACGTGGAGCT,-0.17 kcal/mol
16,GGAGTCACGTGGGCAT,-0.03 kcal/mol
17,TCATTCACGTGGGTAG,0.02 kcal/mol
18,ATAATCACGTGAGATG,0.3 kcal/mol
19,CTGTGCACGTGGGGAA,-0.3 kcal/mol
20,CGGAGCACGTGGCTGG,-0.25 kcal/mol
21,GCGTACACGTGGGGGA,-0.15 kcal/mol
22,TGTTTCACGTGTAACT,0.32 kcal/mol
23,GGATACACGTGTTGTG,0.08 kcal/mol

row,Sequence,relative binding free energy
1,ATGGTCACGTGGGCCA,-0.14 kcal/mol
2,CTGGTCACGTGGGGGT,-0.05 kcal/mol
3,CGAGGCACGTGGTTTT,-0.19 kcal/mol
4,GTTGTCACGTGTGGCT,0.22 kcal/mol
5,TCCTGCACGTGTGGGT,-0.01 kcal/mol
6,GGGCGCACGTGAAAGG,0.16 kcal/mol
7,CTTGGCACGTGATGTT,0.04 kcal/mol
8,GATGGCACGTGGAGGT,0.03 kcal/mol
9,TGCGACACGTGGTTTA,0.01 kcal/mol
10,GTTTACACGTGGCAGT,0.21 kcal/mol
11,GTAGGCACGTGGTGGG,-0.08 kcal/mol
12,CGTGGCACGTGGAGTA,-0.12 kcal/mol
13,AGTATCACGTGCGTGA,0.07 kcal/mol
14,CGAGTCACGTGAAAGT,0.42 kcal/mol
15,TTATGCACGTGTTCAG,0.04 kcal/mol
16,TTGGTCACGTGAATTC,0.43 kcal/mol
17,ATTTTCACGTGGTTCA,0.11 kcal/mol
18,TAGGGCACGTGAGGAT,0.17 kcal/mol
19,TGTACCACGTGCGGTT,-0.07 kcal/mol
20,GTCCTCACGTGGAGGT,0.31 kcal/mol
21,CGGATCACGTGTTGTA,0.2 kcal/mol
22,AGGGGCACGTGAGAGA,0.17 kcal/mol
23,TGGCTCACGTGGTGGT,0.21 kcal/mol

row,Sequence,relative binding free energy
1,GTCGTCACGTGCGGGG,-0.03 kcal/mol
2,TCATGCACGTGAAGGG,0.15 kcal/mol
3,TTTGTCACGTGCGGAC,0.16 kcal/mol
4,TGGTACACGTGGATCG,0.09 kcal/mol
5,AGTGACACGTGCGAGT,-0.04 kcal/mol
6,GTTTGCACGTGGTGGC,0.06 kcal/mol
7,GGAACCACGTGGGGTT,-0.02 kcal/mol
8,ACTGTCACGTGATTGG,0.29 kcal/mol
9,CTGGGCACGTGATTGA,-0.02 kcal/mol
10,ATGAACACGTGAAAGT,0.31 kcal/mol
11,AGTAACACGTGTGGAG,0.03 kcal/mol
12,GCGATCACGTGTGCGG,0.18 kcal/mol
13,TGGTGCACGTGTGTCG,-0.05 kcal/mol
14,TTATGCACGTGATGTA,-0.01 kcal/mol
15,TAATTCACGTGGTGTT,0.27 kcal/mol
16,GTTGTCACGTGATGCA,0.27 kcal/mol
17,GGTATCACGTGATGAA,0.21 kcal/mol
18,CGGGGCACGTGGTATT,-0.11 kcal/mol
19,CGGATCACGTGTTTAT,0.11 kcal/mol
20,GTGTGCACGTGTTGTA,0.01 kcal/mol
21,GTACTCACGTGGGGGC,0.09 kcal/mol
22,TAATACACGTGGTAGG,0.07 kcal/mol
23,GGATTCACGTGGTCTG,0.13 kcal/mol

row,Sequence,relative binding free energy
1,TGTAGCACGTGTGGGT,0.06 kcal/mol
2,TGTAGCACGTGGGATC,-0.09 kcal/mol
3,TCTGTCACGTGAGGCG,0.17 kcal/mol
4,CTTTGCACGTGGGTCT,-0.07 kcal/mol
5,TGATACACGTGAGGCT,0.41 kcal/mol
6,AGGTACACGTGGTCGG,0.01 kcal/mol
7,TTGTGCACGTGAAATA,0.47 kcal/mol
8,TTGACCACGTGTTTGC,0.15 kcal/mol
9,CAAGGCACGTGTGTGG,-0.15 kcal/mol
10,CTTAGCACGTGGGAAG,-0.02 kcal/mol
11,GTCTCCACGTGGTGGT,0.06 kcal/mol
12,TGTATCACGTGGTTCT,0.09 kcal/mol
13,GTTAGCACGTGTAGAA,-0.06 kcal/mol
14,TGGTTCACGTGCGATA,0.34 kcal/mol
15,TGCATCACGTGAGAGT,0.33 kcal/mol
16,CTGGTCACGTGTTAGG,0.16 kcal/mol
17,TTGAGCACGTGATGTG,0.02 kcal/mol
18,TTCTTCACGTGGATTA,0.41 kcal/mol
19,CGTATCACGTGGGGTA,-0.08 kcal/mol
20,GTGTCCACGTGTTAAG,0.22 kcal/mol
21,AGGGGCACGTGCGGCG,-0.26 kcal/mol
22,TGACTCACGTGAAGGA,0.54 kcal/mol
23,TCAGGCACGTGGTAGT,-0.22 kcal/mol

row,Sequence,relative binding free energy
1,GCTTGCACGTGTGGGT,0.05 kcal/mol
2,TTGTCCACGTGCTAGT,0.08 kcal/mol
3,CGGTACACGTGGGATG,-0.09 kcal/mol
4,GGATGCACGTGGGTGA,-0.15 kcal/mol
5,ATATTCACGTGGTTAA,0.07 kcal/mol
6,TGCGACACGTGGAGGT,-0.05 kcal/mol
7,ATCTGCACGTGAGTGG,0.12 kcal/mol
8,TGATTCACGTGTAGAA,0.2 kcal/mol
9,GGTGCCACGTGGGTAT,-0.15 kcal/mol
10,GGTAACACGTGGTGCT,-0.04 kcal/mol
11,AATGACACGTGTAATG,0.07 kcal/mol
12,GGGTTCACGTGATTCT,0.35 kcal/mol
13,TGTTACACGTGTCGTC,0.22 kcal/mol
14,AAGTACACGTGTCGTG,0.13 kcal/mol
15,TGTGTCACGTGGAGAG,0.09 kcal/mol
16,GCGTTCACGTGTTGTG,0.37 kcal/mol
17,TTTTTCACGTGGTTAC,0.25 kcal/mol
18,ATAGGCACGTGTATTC,-0.01 kcal/mol
19,TTTGTCACGTGTTATA,0.06 kcal/mol
20,TTTAGCACGTGGGCCG,-0.12 kcal/mol
21,TGCGTCACGTGGTGTT,-0.05 kcal/mol
22,AATCTCACGTGTAGTT,0.22 kcal/mol
23,ATGGGCACGTGGGTAC,-0.26 kcal/mol
